Laboratory results: the supplement of paper PMC3334620
The full ranking holds about 33,000 sequences; the median of “E-score (-0.5 to 0.5)” is about -0.053, and the highest 2% start at about 0.37. This is one part of the list.

molecular target: Hap1 (UniProt P0CE41); assay: PBM E-score (8-mer binding enrichment) (E-score (-0.5 to 0.5)); higher = stronger / more preferred TF binding; most listed sequences are background and not binding sites; details: protein concentration: 200 nM; construct: GST-DNA-binding domain
In short: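 PURExpress in vitro transcription/translation supplied GST-tagged yeast transcription factors, either full-length or DNA-binding domain. Applied at about 100-200 nM to universal all-10-mer Agilent arrays double-stranded by primer extension, the bound protein was detected with fluorescent anti-GST. E-scores, modified Wilcoxon-Mann-Whitney statistics, were given by the Universal PBM Analysis Suite to ungapped eight-base words pooled with their reverse complements after masliner normalisation.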

Sequence of UniProt P0CE41 (P0CE41 whole entry, the tested form may be a part): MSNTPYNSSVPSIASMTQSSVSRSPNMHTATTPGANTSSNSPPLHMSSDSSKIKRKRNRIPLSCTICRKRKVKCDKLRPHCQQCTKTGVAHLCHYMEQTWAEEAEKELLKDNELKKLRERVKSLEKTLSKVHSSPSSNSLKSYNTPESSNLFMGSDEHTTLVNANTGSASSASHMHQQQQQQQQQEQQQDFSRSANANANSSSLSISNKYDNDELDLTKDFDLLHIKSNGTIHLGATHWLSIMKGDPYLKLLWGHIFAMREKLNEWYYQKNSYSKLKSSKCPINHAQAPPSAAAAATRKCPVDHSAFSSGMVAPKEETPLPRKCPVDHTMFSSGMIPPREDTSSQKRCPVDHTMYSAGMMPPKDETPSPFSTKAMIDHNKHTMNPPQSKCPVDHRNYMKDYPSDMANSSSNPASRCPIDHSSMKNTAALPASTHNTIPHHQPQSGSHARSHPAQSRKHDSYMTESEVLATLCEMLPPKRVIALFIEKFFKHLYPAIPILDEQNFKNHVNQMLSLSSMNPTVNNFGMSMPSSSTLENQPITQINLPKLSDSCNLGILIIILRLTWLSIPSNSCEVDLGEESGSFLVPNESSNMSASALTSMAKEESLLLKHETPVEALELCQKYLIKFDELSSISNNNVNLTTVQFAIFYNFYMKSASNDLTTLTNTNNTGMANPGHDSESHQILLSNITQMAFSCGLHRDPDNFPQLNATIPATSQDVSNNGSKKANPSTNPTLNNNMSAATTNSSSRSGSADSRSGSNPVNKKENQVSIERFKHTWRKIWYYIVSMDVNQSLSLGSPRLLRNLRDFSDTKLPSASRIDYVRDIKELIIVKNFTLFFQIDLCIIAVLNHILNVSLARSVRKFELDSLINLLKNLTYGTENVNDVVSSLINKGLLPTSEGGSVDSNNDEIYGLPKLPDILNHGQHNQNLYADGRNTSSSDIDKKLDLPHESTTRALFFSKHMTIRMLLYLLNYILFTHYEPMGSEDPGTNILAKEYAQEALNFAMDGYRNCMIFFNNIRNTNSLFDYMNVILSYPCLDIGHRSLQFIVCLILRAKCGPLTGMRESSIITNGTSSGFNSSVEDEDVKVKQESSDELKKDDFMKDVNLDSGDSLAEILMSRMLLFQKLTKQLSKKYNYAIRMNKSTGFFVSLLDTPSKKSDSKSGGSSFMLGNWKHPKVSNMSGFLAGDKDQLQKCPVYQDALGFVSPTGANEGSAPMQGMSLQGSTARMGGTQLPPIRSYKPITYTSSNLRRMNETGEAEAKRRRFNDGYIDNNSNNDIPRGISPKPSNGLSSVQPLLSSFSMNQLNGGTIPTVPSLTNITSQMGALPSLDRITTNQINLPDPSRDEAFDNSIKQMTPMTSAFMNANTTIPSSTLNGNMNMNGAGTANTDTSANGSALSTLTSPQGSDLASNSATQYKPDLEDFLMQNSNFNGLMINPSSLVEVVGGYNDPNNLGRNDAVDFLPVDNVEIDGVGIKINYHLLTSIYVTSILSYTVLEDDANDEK

Sequence | PBM E-score
CGAGCAGA | 0.0783
GCCGCGGC | 0.361
AACGCACA | -0.00776
ATCATGGA | -0.318
GGGTTAAA | 0.226
GGTCCGAC | 0.392
AATGGAGC | -0.174
CAGTTTCG | 0.039
CTTCTGTA | -0.236
GCGACCGA | 0.253
AACTTCCC | -0.1
CTACGAGA | -0.0738
ATGCTTGG | -0.181
CATGCGCG | 0.119
ATCGATCC | 0.0901
AAGAAGTC | -0.129
ATTTTTCA | 0.0304
AGAAGAGA | -0.208
CCTCCCCG | 0.246
TAACCGCA | 0.165
CGATCAAA | -0.0429
AGGAATTA | 0.17
CACTCGAA | -0.151
CTCTACCA | -0.0837
AGAGGGAT | -0.248

Sequence | PBM E-score
AGTAGTGA | -0.1
AGGGAGGG | 0.13
GGCTATCA | -0.0699
GCGGACAA | 0.304
AAGAGTTG | -0.157
AGTATGCA | -0.171
CAGAGGCG | -0.114
AAGTGAAT | 0.0167
CAGTCTTC | -0.18
TAGTTACA | -0.143
CACCCGGC | 0.282
GTCCGGAC | 0.454
CTCGCCAG | -0.168
ACTCGCTG | 0.0106
GTTCCAAC | 0.0858
ACCTCAGG | -0.269
ACCAATCG | 0.0386
AGAATGAC | -0.118
AAGTCGGA | 0.169
AATCAGAT | -0.149
TGCCGCCA | -0.0312
GAAGGAAC | 0.00601
CGTATACG | 0.122
AACTAGAC | 0.0207
AGCTCGAG | -0.09

Sequence | PBM E-score
GAATTTCC | 0.198
ATCAGGCC | 0.0138
GAGCGCAC | 0.138
GTCATATA | -0.0533
CGGAAGAG | 0.139
GGATATGA | 0.114
AAAAATAC | -0.00066
ACAAACTC | 0.0453
ACCTACGG | 0.0993
CTCTCGAA | -0.332
GTGAACTA | -0.0762
GCCCGCCC | 0.179
GTTAACCA | -0.099
CACAGTAA | -0.213
GAAAGTGC | -0.0198
CTTTAAGA | 0.112
GAGCGACA | -0.0576
GCTGAGCA | -0.254
ACCGTTCA | 0.101
ACGCAGAC | -0.217
ATGGGTGG | -0.0114
ATGTGACG | -0.166
GTGCAAGA | -0.0817
ACTCACAT | -0.261
ATTATTCC | 0.227

Sequence | PBM E-score
AAAAGAAC | -0.0884
CTCGATAA | -0.00886
CCCCGTCG | 0.0558
AGACACAT | -0.14
GTAGCTGA | -0.121
CGAAGGTA | 0.0118
GCACAGAC | 0.0195
ACATTTGG | 0.0134
ATAAAGGA | -0.123
AGTAGCGA | -0.215
AGTCCGGA | 0.452
CCAATAAA | 0.0119
GACCTGTA | -0.0141
CTGGTTGA | -0.268
GGAAGCTA | -0.0132
CGGTATGC | 0.131
AGACACAG | -0.202
CACCACGA | -0.096
ACGGCATG | 0.0675
CAGTATGA | -0.125
AAAATAAT | -0.0158
TCGCGAAA | 0.226
TACGAGAA | -0.0208
CCGCATCG | 0.149
TGAAATAA | -0.17

Sequence | PBM E-score
CTAAAATC | 0.0164
GCTTTTAA | 0.184
AACAGGAG | -0.12
CGCGTGAC | 0.0236
GTGGTACA | -0.216
ACCGCTTG | 0.0486
CAACGGGA | 0.0811
CGACATCC | 0.0972
ACGTTCTA | -0.159
AAGGCAAA | -0.28
AGATTTCC | 0.161
CTGGTCTA | -0.142
GCCGACTA | 0.0842
AGTAGAAT | -0.224
GCCGGAGA | 0.372
CTGCGCTA | -0.139
CCATGACG | -0.0309
AGACGAGC | -0.272
GCCTCCAA | -0.124
CTTTATAC | 0.152
CGCCAGAC | -0.101
ACAAGTAA | -0.176
CAGACTCC | -0.146
GAATACCC | 0.178
ATGATTCA | -0.2

Sequence | PBM E-score
CCGTCATC | 0.173
AGATTAGA | -0.145
GAGCTGCA | -0.00591
AAGTTCGT | -0.181
ATGACCTA | -0.119
CGCGCCCC | 0.202
ACTAATCT | 0.122
CATCCGCC | 0.244
AGGCTGGA | -0.281
ACACGATC | -0.0737
GAATCGGC | 0.341
CAAAGACC | -0.00942
CACCCATA | -0.267
GATGGACA | -0.113
CCAGGTTA | -0.202
GTTCAAAA | 0.0109
ACCCTGAG | -0.175
GACGCACA | 0.0187
ATAACTAG | -0.0842
CTATGATC | -0.0588
ACACCTCA | -0.254
ACCGGCTC | 0.279
ACTCTCGG | 0.348
TCCGAAAA | 0.393
ACGTGACC | -0.139

Sequence | PBM E-score
GTGAGAGA | -0.0626
CATCTGAG | -0.216
AGGGGTGC | -0.317
GATAAGCA | 0.147
ACGCAGCA | -0.121
AGGCACAC | -0.148
CTCCGCAA | 0.259
CGTTTATA | 0.136
AGAAGATA | 0.128
CCATTAAA | 0.0191
CACTGGCC | -0.0906
CCTCGAGG | -0.304
CTTCCGGC | 0.275
CGATACTA | 0.21
AGCTTCGG | 0.292
ATGATTGC | -0.039
CACTATCG | 0.167
TGATGGCA | -0.177
GACTAACC | -0.00978
GCTGCTTA | -0.0741
ACATAGTG | 0.0008
CCGTTTTA | 0.254
